This note sets out measurements from PubChem BioAssay (NCI).

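Tested at 5 concentrations; 48 h exposure; 96-well plates; endpoints linearly interpolated, else capped at highest concentration. Here, GI50 denotes the concentration required for 50% inhibition of growth. TGI: total growth inhibition.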 Numbered stars: 1 amine (or outer) side, 2 acyl side, 3 side chain; on linkers, the order of the positions; unused ones are H or OH. Square brackets hold non-standard residues; d marks the D form. Peptide text beside a SMILES is read from it. * marks the point of attachment. X9 = C/C=C/CC(C)C(O)[C@H](N[*:1])C(=O)[*:2]; Decanoyl = CCCCCCCCCC(=O)*; Leu(ol) = CC(C)C[C@H](N)CO; Iva = CC[C@](C)(N)C(=O)O; Aib = CC(C)(N)C(=O)O Some results are limits rather than exact numbers.

In the assay the test system is NCI-H322M lung. Briefly: inhibition of tumour cell growth, NCI panel, 48 h.

`NS(=O)(=O)c1ccc(Nc2nc(N/N=C/c3ccc(C(F)(F)F)cc3)nc(Nc3ccccc3)n2)cc1`: the GI50 is 3310 nM and the TGI came to 12 µM. Turning to `CNCCN(C)c1ccc(Nc2cc(NC3CC3)n3ncc(C#N)c3n2)cc1NC(C)=O`, the GI50 was 18.8 nM. `C/C=C/CC(C)C(O)[C@H](NC(=O)[C@@H]1CCCN1C(=O)[C@](C)(CC)NC(=O)CCCCCCCCC)C(=O)N[C@@](C)(CC)C(=O)N[C@@H](CCC(N)=O)C(=O)N[C@H](CCC(N)=O)C(=O)NC(C)(C)C(=O)NC(C)(C)C(=O)N[C@@H](CCC(N)=O)C(=O)N[C@H](CC(C)C)C(=O)N[C@H](CO)CC(C)C` (stereo partly drawn) (Decanoyl-[Iva]P[X9][Iva]Q[dQ][Aib][Aib]Q[dL][Leu(ol)]): the GI50 was 1710 nM and the TGI came out at 3.32 µM.

As to `COC(=O)N1CCN(CCNCc2ccc(NC(=O)c3ccc(C)c(C#Cc4cnc5cccnn45)c3)cc2C(F)(F)F)CC1`, the GI50 was 2420 nM and the TGI turned out to be 6.82 µM. Take `C[C@@H]1CCC/C=C/[C@H]2C[C@@H](O)C[C@@H]2[C@@H](O)/C=C/C(=O)O1`: the GI50 is 152 nM and the TGI was > 33.3 µM.
